Reference: PubChem BioAssay AID651711 (Broad Institute, 2012)
In all, about 350,000 compounds went through this assay and about 180 (0.051%) were called active. The shares of active, inactive and inconclusive entries below differ from those in the screen.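 The calls were made as follows: active = mean replicate inhibition above about 25%, with every replicate also reaching it (limit read from the data, passing the limit was not always enough); inconclusive = only one of those two criteria met; inactive = neither criterion met.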

Target: Protein disulfide-isomerase A6 (Homo sapiens) (UniProt Q15084)
Sequence of UniProt Q15084 (Q15084 whole entry, looked up): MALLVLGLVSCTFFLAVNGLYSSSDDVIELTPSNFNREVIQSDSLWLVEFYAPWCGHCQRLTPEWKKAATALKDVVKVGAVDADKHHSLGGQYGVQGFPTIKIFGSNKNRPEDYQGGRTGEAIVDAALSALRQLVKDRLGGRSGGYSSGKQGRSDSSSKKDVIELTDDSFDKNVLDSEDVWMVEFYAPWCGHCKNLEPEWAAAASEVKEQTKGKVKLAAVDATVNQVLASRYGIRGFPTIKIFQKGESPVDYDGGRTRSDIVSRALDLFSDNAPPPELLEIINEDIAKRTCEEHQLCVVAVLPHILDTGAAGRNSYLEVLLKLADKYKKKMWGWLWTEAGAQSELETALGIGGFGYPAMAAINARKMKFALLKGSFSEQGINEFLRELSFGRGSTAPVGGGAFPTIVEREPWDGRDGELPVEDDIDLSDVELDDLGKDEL
Test: inhibitors of ERp5-driven insulin aggregation, primary screen, biochemical, turbidity, absorbance 650 nm, single point (AID 651711)
Details: 90 min, at 9.99 µM, hits give high values

Row | SMILES | inhibition
1 | O=C(COC(=O)c1ccccc1Cl)NCCC1=CCCCC1 | inconclusive: 31.7%
2 | C[C@H]1CCCCO[C@H](CN(C)Cc2ccc(C(F)(F)F)cc2)[C@@H](C)CN([C@@H](C)CO)C(=O)c2cc(NC(=O)Nc3ccc4c(c3)OCO4)ccc2O1 | inactive: 1.22%
3 | CCN(CCn1cccn1)Cc1nc(-c2ccc(C(=O)OC)cc2)no1 | inconclusive: 33.1%
4 | Cc1ccc(CN2CC(C(=O)Nc3nnc(SCc4c(Cl)cccc4Cl)s3)CC2=O)cc1 (stereo unspecified) | inconclusive: 37%
5 | C[C@H]1CN([C@@H](C)CO)C(=O)c2cccc(NC(=O)Nc3cccc4ccccc34)c2O[C@@H]1CN(C)C(=O)Nc1ccc(C(F)(F)F)cc1 | active: 79.4%
6 | O=C(O)c1ccc(CSc2ccccn2)cc1 | inconclusive: 42.4%
7 | O=C(NCCc1cnc[nH]1)Nc1cccc(C(F)(F)F)c1 | inactive: 5.95%
8 | O=C(NCCCN1CCC(Cc2ccccc2)CC1)C1CCC(=O)N1C1CCCC1 (stereo unspecified) | inconclusive: 55.9%
9 | O=C(c1cccc(F)c1)N1CCCCN2[C@H](C1)[C@H](c1ccc(-c3ccccc3)cc1)[C@@H]2CO | active: 28.4%
10 | O=C(Nc1nnc(SCC(=O)N2CCCc3ccccc32)s1)c1cccc2ccccc12 | inconclusive: 35.8%
11 | COc1ccc2c3c(n(C)c2c1)[C@@H](CO)N(C(=O)NC(C)C)CC31CCN(C(=O)NC(C)C)CC1 | inactive: -10.7%
12 | CN1C(=O)c2cc(NC(=O)C3CCCCC3)ccc2OC[C@@H]2O[C@@H](CC(=O)NC3CCCC3)CC[C@H]21 | active: 31%
13 | Cc1ccc(NC(=O)C2CCCCC2C(=O)O)cc1Cl (stereo unspecified) | inconclusive: 40.9%
14 | CN(CC(=O)Nc1ccc(S(=O)(=O)N2CCCC2)cc1)Cc1ccc(Cl)cc1 | inconclusive: 49.5%
15 | C[C@H](CO)N1C[C@H](C)[C@@H](CN(C)Cc2cccc(F)c2)Oc2ncc(Br)cc2C1=O | inactive: 5.94%
16 | COc1ccccc1Cn1c(=O)c2ccccc2n2c(SCC(=O)N3CCCCC3)nnc12 | inconclusive: 39.7%
17 | C[C@@H]1CN([C@H](C)CO)C(=O)c2cc(NS(=O)(=O)c3ccc(F)cc3)ccc2O[C@@H](C)CCCCO[C@H]1CN(C)Cc1ccc(Cl)c(Cl)c1 | inconclusive: 40.6%
18 | CS(=O)(=O)Nc1ccccc1C(=O)Nc1cccc(Cl)c1 | inconclusive: 41.2%
19 | CCc1ccc(OCc2cnc(Cl)s2)cc1 | inconclusive: 41%
20 | COC(=O)[C@@H]1[C@@H](CO)[C@@H]2Cn3c(ccc(-c4cccc(F)c4)c3=O)[C@@H]2N1C(C)=O | inconclusive: 44.6%
21 | Cc1ccc(S(=O)(=O)N(C)c2c(C)ccc(S(=O)(=O)NC(C)(C)C)c2C)cc1 | inconclusive: 36.3%
22 | C[C@H]1CN([C@@H](C)CO)S(=O)(=O)c2ccc(C#CC3CCCC3)cc2O[C@@H]1CN(C)S(C)(=O)=O | inactive: -3.08%
23 | C[C@H]1CCCCO[C@H](CN(C)C(=O)CCCN(C)C)[C@@H](C)CN([C@@H](C)CO)C(=O)c2cc(NS(=O)(=O)c3ccc(F)cc3)ccc2O1 | inactive: -1.17%
24 | C[C@@H]1CN([C@H](C)CO)C(=O)c2cc(-c3cccc(C#N)c3)cnc2O[C@H]1CN(C)Cc1cncnc1 | active: 75.3%

Row | SMILES | inhibition
25 | CCC/S(C)=N/S(=O)(=O)c1ccc(C)cc1 (stereo unspecified) | inconclusive: 41%
26 | C[C@H]1CCCCO[C@H](CN(C)C(=O)C2CCCCC2)[C@@H](C)CN([C@@H](C)CO)C(=O)c2cc(NS(=O)(=O)c3cn(C)cn3)ccc2O1 | inactive: -6.04%
27 | COc1cccc(CNc2nc3nc(C)c(Cl)c(=O)n3[nH]2)c1 | inconclusive: 34.3%
28 | CN1C[C@@H]2[C@@H]3C(=O)N(Cc4ccccc4)C(=O)[C@@H]3[C@](Cc3ccccc3)(C1=O)N2C(=O)c1ccc(Cl)cc1 | inconclusive: 36.7%
29 | COc1cc([N+](=O)[O-])ccc1NC(=O)Nc1cnccn1 | inactive: 3.66%
30 | COCC(=O)N1CC2(C1)CN(Cc1ccccc1F)[C@H](CO)c1[nH]c3cc(OC)ccc3c12 | active: 33.6%
31 | COc1ccc(NC(=O)N(C)C[C@@H]2Oc3ccc(NC(=O)c4ccncc4)cc3CC(=O)N([C@@H](C)CO)C[C@@H]2C)cc1 | inconclusive: 39.8%
32 | O=[N+]([O-])c1ccc(OCCO)c(P(=O)(c2ccccc2)c2ccccc2)c1 | inconclusive: 28.3%
33 | Cc1ccc(N(C)C(=O)n2cnc3ccccc32)cc1 | inconclusive: 42.8%
34 | Cc1ccc(S(=O)(=O)N[C@H]2CC[C@H](CCNC(=O)Cc3ccccn3)O[C@H]2CO)cc1 | inconclusive: 50.5%
35 | Cc1ccccc1-c1noc(-c2ccccc2C(=O)O)n1 | inconclusive: 38.8%
36 | COc1cccc(-c2ccc3c(c2)[C@@H]2[C@@H](CCN2S(=O)(=O)c2ccccc2C)[C@H](CO)N3C)c1 | inactive: 0.889%
37 | COc1cc(C#N)ccc1OCC(=O)NCc1cccs1 | inconclusive: 41%
38 | O=C(O)c1ccccc1-c1ccccc1C(=O)Nc1ccc(OC(F)(F)F)cc1 | inconclusive: 50.6%
39 | CNC(=O)C[C@H]1CC[C@@H]2[C@H](COc3ccc(NS(=O)(=O)c4ccccc4C)cc3C(=O)N2C)O1 | inactive: -4.22%
40 | COc1ccc(CNC(=O)COc2ccc(C(=O)c3ccc(F)cc3)cc2)cc1 | inconclusive: 31%
41 | CC(C)c1ccc(NC(=O)C(c2ccccc2)N(Cc2ccco2)C(=O)CC2NC(=O)NC2=O)cc1 (stereo unspecified) | inconclusive: 39.6%
42 | CCCNC(=O)N1[C@@H]2Cn3c(cccc3=O)[C@H]1[C@@H](C(=O)N1CCC(Cc3ccccc3)CC1)[C@@H]2CO | inactive: -2.47%
43 | Cc1ccc(C(=O)N2CCN(CCNC(=O)C(=O)NC(C)C)CC2)cc1 | inconclusive: 47.5%
44 | CCOc1ccccc1NC(=O)C(NC(=O)C1CCC(C)CC1)C(C)C (stereo unspecified) | inconclusive: 37.8%
45 | Cc1ccc(C(=O)N/N=C(\CC(C)C)c2ccccc2)cc1 | inconclusive: 44.7%
46 | C[C@H](O)C#Cc1cnc2c(c1)C(=O)N([C@@H](C)CO)C[C@H](C)[C@H](CN(C)CC1CCCCC1)O2 | active: 32.2%
47 | Cc1ccccc1NC1=C/C(=N\S(=O)(=O)c2ccc(C(=O)O)cc2)c2ccccc2C1=O | inactive: 10.2%
48 | CCc1nc2ccc(C(=O)Nc3nnc(C)s3)cc2nc1CC | inconclusive: 35.3%

Row | SMILES | inhibition
49 | CC1=NC(C)(C)Cc2cc(C)c(C)cc21 | inconclusive: 37.7%
50 | O=C(NCC[C@@H]1CC[C@H](NC(=O)C2CC2)[C@H](CO)O1)Nc1ccc(C(F)(F)F)cc1 | inconclusive: 43.2%
51 | Cc1cc(C)cc(-n2c(=O)c3ccccc3n(CC(=O)NCC3CCCO3)c2=O)c1 (stereo unspecified) | inconclusive: 34.9%
52 | O=C(C1CCCC1)N1CC(=O)N2[C@H](CO)[C@@H](c3ccc(-c4ccccc4F)cc3)[C@H]2C1 | inconclusive: 27.9%
53 | Cc1noc(C)c1NC(=O)N(C)C[C@@H]1Oc2ccc(NC(=O)NC(C)C)cc2CC(=O)N([C@@H](C)CO)C[C@@H]1C | inconclusive: 37.7%
54 | Cc1cc(NC(=O)CSc2nnc(CNC(=O)c3cccc(C(F)(F)F)c3)o2)no1 | inactive: 4.42%
55 | O=C(CSc1nnc(-c2ccccc2F)n1C1CC1)Nc1ccc2[nH]c(=O)[nH]c2c1 | inactive: 4.07%
56 | OC[C@H]1O[C@@H]2O[C@H]3[C@H](O)[C@@H](O)[C@@H](O[C@H]4[C@H](O)[C@@H](O)[C@@H](O[C@H]5[C@H](O)[C@@H](O)[C@@H](O[C@H]6[C@H](O)[C@@H](O)[C@@H](O[C@H]7[C@H](O)[C@@H](O)[C@@H](O[C@H]1[C@H](O)[C@H]2O)O[C@@H]7CO)O[C@@H]6CO)O[C@@H]5CO)O[C@@H]4CO)O[C@@H]3CO | inactive: 2.79%
57 | C[C@@H]1CN([C@@H](C)CO)C(=O)Cc2cc(NC(=O)NC3CCCCC3)ccc2O[C@@H]1CN(C)Cc1ccccc1 | inconclusive: 34.8%
58 | CC(=O)Nc1ccc(S(=O)(=O)Oc2cccc(/C=N/N=C3/NC(=O)C(CC(=O)O)S3)c2)cc1 (stereo unspecified) | inconclusive: 39.4%
59 | Brc1ccc(CSc2nnc(-c3ccco3)o2)cc1 | inactive: -7.12%
60 | COC(=O)C1CCCCN1C(=O)CCc1nnc(CCc2c[nH]c3ccccc23)o1 (stereo unspecified) | inconclusive: 49.2%
61 | COc1ccc2c3c([nH]c2c1)[C@@H](CO)N(C(=O)c1ccc(F)cc1)CC31CCN(C(=O)Nc2cccc(F)c2)CC1 | active: 62.9%
62 | COc1cccc(CN(C)Cc2nc3cc(C(F)(F)F)ccc3c(=O)[nH]2)c1 | inactive: 10.7%
63 | Cc1cc(OCC(=O)Nc2ccc(F)c(F)c2)nc(C(C)C)n1 | inconclusive: 48.2%
64 | CN(C)CC(=O)N[C@@H]1CC[C@@H](CCNC(=O)C2CC2)O[C@H]1CO | inactive: 2.2%
65 | Cc1cccc(C(=O)Nc2ccnc(-c3cccnc3)n2)c1 | inconclusive: 38%
66 | C[C@@H]1CN([C@H](C)CO)C(=O)c2cc(NC(=O)Nc3ccc(F)cc3)ccc2O[C@H]1CN(C)Cc1ccc(-c2ccccc2)cc1 | active: 51.4%
67 | Cc1ccc(NS(=O)(=O)c2ccc3oc(=O)ccc3c2)cc1Cl | inconclusive: 40.4%
68 | Nc1cccc2c1C(=O)N(C(=O)c1ccco1)C2=O | inconclusive: 37.9%
69 | C[C@H]1CN([C@@H](C)CO)C(=O)c2cc(NS(=O)(=O)c3ccccc3)ccc2O[C@@H]1CN(C)Cc1ccc2c(c1)OCO2 | inactive: -2.52%
70 | Cc1cc(C)c2sc(NNC(=O)C3COc4ccccc4O3)nc2c1 (stereo unspecified) | inconclusive: 50.4%
71 | CCOc1ccc(-c2ccc(/C=C3/C(=N)N4C(C)=CSC4=NC3=O)o2)c([N+](=O)[O-])c1 | inconclusive: 43.2%
